From the supplement of paper PMC12217912
The list shows a part of the results. Sequences were assembled here from the parent chain. Values near 0.05 are background.

B1: TEV protease; numbered along this chain (parent)
chain: MGESLFKGPRDYNPISSSICHLTNESDGHTTSLYGIGFGPFIITNKHLFRRNNGTLVVQSLHGVFKVKDTTTLQQHLVDGRDMIIIRMPKDFPPFPQKLKFREPQREERICLVTTNFQTKSMSSMVSDTSCTFPSGDGIFWKHWIQTKDGQCGSPLVSTRDGFIVGIHSASNFTNTNNYFTSVPKNFMELLTNQEAQQWVSGWRLNADSVLWGGHKVFMVKPEEPFQPVKEATQL

Variants of: B1
Test: raw area under fraction-flipped curve 0-4 h after induction (AUC4h, not background-subtracted), DNA-recorder readout of cleavage of the substrate (dimensionless); higher = more cleavage of the substrate by the protease variant
Settings: temperature: 34 °C; time window: 0-4 h after rhamnose induction
Experimental: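 In vivo DNA recorder in E. coli TOP10(DE3) ΔrhaA at 34 °C. Each TEVp single-site mutant (parent TEVp 0) is paired with a single-site variant of the 7-mer TEVs (canonical ENLYFQ|S). The substrate sits between flexible linkers in a Bxb1-sfGFP-TEVs-SsrA fusion, so cleavage stabilises Bxb1 and speeds flipping of a recombination array, read by NGS. The value is the raw area under the fraction-flipped curve over 0-4 h after rhamnose induction (AUC4h), with ≥20 reads per time point. It is not background-subtracted; inactive controls average about 0.047.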
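Also: Bxb1 expression induced with 0.2% (w/v) L-rhamnose at OD600 near 0.5, cultures sampled hourly, flipped fraction per protease–substrate barcode pair counted by paired-end Illumina sequencing.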

Variant | area with substrate ENLYAQS | area with substrate ENLYDQS | area with substrate ENLYHQS | area with substrate ENLYKQS | area with substrate ENLYMQS | area with substrate ENLYQQS | area with substrate ENLYRQS | area with substrate ENLYTQS | area with substrate ENLYWQS | area with substrate ENLYEQS | area with substrate ENLYGQS | area with substrate ENLYPQS | area with substrate ENLYSQS | area with substrate ENLYVQS | area with substrate ENLYIQS | area with substrate ENLYNQS | area with substrate ENLYCQS | area with substrate ENLYYQS | area with substrate ENLYLQS
T115N | 0.122 | 0.0562 | 0.0706 | 0.0619 | 0.0734 | 0.0579 | 0.0599 | 0.0814 | 0.0879 | – | – | – | – | – | – | – | – | – | –
E103A | 0.0774 | – | – | 0.0644 | 0.0843 | – | – | – | 0.104 | 0.0641 | 0.0849 | 0.0773 | 0.0758 | 0.102 | – | – | – | – | –
F117H | 0.0866 | 0.0633 | 0.0713 | 0.042 | 0.0738 | 0.0763 | 0.0628 | 0.0782 | 0.0782 | 0.055 | 0.0712 | 0.0598 | 0.0508 | 0.121 | 0.137 | 0.0662 | – | – | –
W141M | 0.0614 | 0.0531 | 0.0544 | 0.0626 | 0.0569 | 0.0528 | 0.0528 | – | – | 0.0591 | – | 0.0612 | 0.0575 | 0.133 | 0.0748 | 0.0695 | 0.0542 | – | –
H143P | 0.061 | 0.0669 | 0.0502 | 0.0588 | 0.0448 | – | 0.0611 | 0.0605 | 0.0561 | 0.048 | 0.0451 | 0.0498 | 0.0481 | 0.0588 | – | 0.0673 | 0.0468 | 0.0661 | –
H143R | 0.0651 | – | 0.051 | 0.0911 | – | – | 0.0682 | – | 0.061 | 0.0588 | 0.0592 | 0.0539 | 0.0531 | – | 0.0578 | 0.0593 | 0.0605 | 0.0491 | 0.0778
M125T | 0.0779 | 0.063 | 0.0567 | 0.0616 | 0.0909 | 0.0653 | 0.0629 | – | 0.0661 | 0.0701 | 0.0657 | 0.074 | 0.0523 | 0.0851 | 0.132 | 0.0668 | 0.0981 | – | 0.0841
M125N | 0.0707 | 0.0565 | 0.0658 | 0.0519 | 0.104 | 0.0422 | 0.0582 | 0.0947 | 0.0859 | 0.0627 | 0.0675 | 0.0778 | 0.0775 | – | 0.159 | 0.0692 | 0.0757 | 0.0637 | 0.0631
D91H | 0.0744 | 0.0637 | 0.0753 | 0.0563 | 0.0787 | – | 0.0955 | – | – | 0.0801 | 0.0532 | 0.0912 | 0.0818 | 0.104 | 0.122 | 0.0565 | 0.09 | 0.0605 | 0.098
D91P | 0.102 | 0.0473 | – | – | – | – | – | – | 0.087 | 0.0706 | 0.0695 | – | 0.0733 | 0.152 | – | 0.0659 | – | – | –
D91A | 0.0746 | 0.0618 | 0.0649 | – | – | 0.0703 | – | – | – | 0.0623 | 0.0615 | 0.0778 | 0.049 | 0.137 | 0.124 | 0.0661 | – | – | –
F133N | 0.0833 | 0.059 | 0.0872 | – | – | – | 0.0561 | 0.0771 | – | – | 0.0647 | 0.0788 | – | 0.0871 | 0.116 | 0.0522 | – | – | –
T147N | 0.0712 | 0.0572 | 0.059 | 0.0573 | 0.0591 | 0.0639 | 0.0543 | – | 0.0601 | 0.0725 | 0.0596 | 0.0657 | – | 0.0531 | 0.0571 | 0.042 | – | 0.0658 | –
G150R | 0.0579 | 0.0576 | 0.0576 | 0.0593 | 0.0587 | 0.0943 | – | 0.047 | 0.0584 | 0.0601 | 0.047 | 0.0508 | 0.0705 | 0.0597 | 0.0652 | 0.0566 | 0.0679 | 0.0616 | 0.0536
K142T | 0.0595 | 0.0642 | 0.0644 | 0.0527 | 0.0894 | – | 0.064 | 0.0776 | 0.0712 | 0.0644 | 0.0729 | 0.0715 | 0.0591 | 0.0818 | 0.0956 | 0.0665 | – | – | –
K142E | 0.0685 | 0.0619 | 0.0609 | 0.0718 | – | 0.0632 | 0.0581 | – | 0.0583 | 0.0679 | 0.0613 | 0.0671 | 0.0666 | – | 0.0849 | 0.0644 | – | – | –
T132V | 0.0792 | 0.0493 | 0.0578 | 0.0693 | 0.0712 | 0.0351 | 0.065 | 0.0674 | 0.0556 | 0.0712 | – | 0.0755 | 0.0707 | 0.0978 | 0.106 | 0.0619 | 0.0817 | 0.054 | 0.0742
M83T | 0.0499 | 0.067 | – | – | 0.0463 | 0.0628 | 0.0538 | 0.0854 | 0.0635 | 0.0667 | 0.0574 | 0.0483 | 0.0775 | – | 0.0867 | 0.0564 | – | 0.059 | –
R106F | 0.0722 | 0.0628 | 0.0661 | 0.0529 | 0.0684 | 0.0616 | 0.0116 | – | 0.091 | 0.0802 | 0.0599 | 0.0769 | – | 0.117 | 0.141 | – | – | – | –
P155A | 0.0788 | 0.0593 | 0.0654 | 0.0518 | 0.0792 | 0.0846 | – | 0.0826 | 0.0816 | 0.0472 | 0.0948 | – | 0.0896 | 0.114 | 0.121 | 0.0664 | – | 0.0596 | –
V126N | 0.0798 | 0.0697 | 0.0749 | 0.0567 | 0.0934 | 0.0651 | 0.0473 | 0.079 | 0.0693 | 0.0672 | 0.0528 | – | 0.0876 | 0.0583 | 0.105 | – | 0.127 | 0.0657 | 0.0931
F140K | 0.0972 | 0.0596 | 0.0644 | 0.0542 | 0.0515 | 0.0595 | 0.0931 | 0.0706 | 0.051 | 0.0697 | – | – | – | – | 0.0583 | 0.0528 | 0.0445 | – | 0.0536
F140C | 0.0686 | 0.0554 | 0.0644 | 0.0675 | 0.0655 | 0.0534 | 0.0815 | – | 0.0693 | 0.0473 | 0.0518 | 0.0529 | 0.0607 | 0.0697 | 0.0713 | 0.0628 | – | 0.0857 | –
D137N | 0.0868 | 0.0645 | 0.0703 | 0.0478 | 0.0844 | 0.0625 | 0.0569 | 0.0674 | 0.0728 | 0.0771 | 0.045 | 0.0752 | – | 0.124 | 0.118 | 0.0636 | – | 0.0584 | 0.0768
